This passage reports activation results from PubChem BioAssay AID1346428 (National Center for Advancing Translational Sciences (NCATS), 2018).

Screen size: about 48,000 compounds; about 1,200 (2.5%) were called active. Another 2% or so got no clear call; they are omitted.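 The calls were made as follows: active = activation of at least 60% and not above a set upper limit (about 1 call in 100 departs from these limits); inconclusive = activation of 40% to 60%, or above that upper limit; inactive = activation under 40%.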 This is one part of the list.

The test has as its target Probable G-protein coupled receptor 32 (Homo sapiens) (UniProt O75388). Kind of test: qHTS for Agonists of Human Resolvin D1 Receptor DRV1. Also: 0% is about no effect. The following applies: CHO-K1 GPR32 beta-arrestin PathHunter luminescence, 90 min; at 76.9 µM; active compounds read high; zero percent set by DMSO-only wells. Summed up: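 Cells are plated overnight, treated with compounds in DMSO for 90 minutes at 37 °C, and developed with PathHunter detection reagent for 1 hour before luminescence is read; signal reflects beta-arrestin binding to GPR32 in engineered CHO-K1 cells.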
UniProt O75388, sequence (O75388 whole entry, looked up): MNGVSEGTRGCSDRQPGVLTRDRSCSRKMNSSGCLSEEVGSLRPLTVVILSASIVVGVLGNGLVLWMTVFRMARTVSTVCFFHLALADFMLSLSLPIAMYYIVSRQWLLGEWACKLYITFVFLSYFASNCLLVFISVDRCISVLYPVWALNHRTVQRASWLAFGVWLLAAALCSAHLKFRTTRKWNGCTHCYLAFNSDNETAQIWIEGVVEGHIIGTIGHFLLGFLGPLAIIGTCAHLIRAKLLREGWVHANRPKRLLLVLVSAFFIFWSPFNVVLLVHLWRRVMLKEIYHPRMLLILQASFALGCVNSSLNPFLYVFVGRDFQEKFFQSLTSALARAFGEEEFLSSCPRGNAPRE
Regarding `COc1ccc(NC(=O)CCc2c(C)nc3nc(CNC(=O)OC(C)(C)C)nn3c2C)cc1OC`, the activation was inactive: -12.8%.
For the molecule `CCc1ccc(NC(=O)CC2C(=O)N(c3cccc(C)c3)C(=O)N2Cc2ccco2)cc1` (centres undefined), the activation was inactive: -11.1%.
`CC(=O)N1CCCC1c1nc2ccccc2n1Cc1ccccc1C` (centres undefined): the activation is inactive: -6.71%.
On to `CCc1ccccc1NC(=O)N1CCN(C(=O)c2nsc3ccccc23)CC1`, for which the activation was inactive: -15.9%.
For the molecule `COc1cccc2cc(C(=O)NCCc3c(C)[nH]c4ccc(F)cc34)c(=O)oc12`, the activation is inactive: 16.3%.
Turning to `CC1CCN(S(=O)(=O)c2ccc3c(ccn3CCC(=O)NCc3ccc(N(C)C)cc3)c2)CC1`, the activation was inactive: -35.2%.
`CCNc1nc(NC(C)(C)C)nc(Oc2ccc(=O)n(C)n2)n1`: the activation is inactive: -0.235%.
Consider `CCS(=O)(=O)N1CCc2cc(C(=O)NCCc3ccc(OC)cc3)ccc21`, for which the activation is inactive: 22.1%.
For the molecule `CC1CCN(S(=O)(=O)c2nnc(NC(=O)c3cccc(Br)c3)s2)CC1`, the activation is active: 72.7%.
As to `COc1cc(NC(=O)CC(C)n2nc(C)cc2C)cc(OC)c1` (centres undefined), the activation was inactive: -3.23%.
Regarding `O=C(NCCc1ccccc1)C(=O)NCC(c1ccc2c(c1)OCO2)N1CCOCC1` (centres undefined), the activation was inactive: 0.162%.
For `COc1cc(NC(=O)C(CCSC)NS(=O)(=O)c2ccc3c(c2)oc(=O)n3C)cc(OC)c1` (centres undefined), the activation was inactive: -20.4%.
As to `CCOc1ccccc1C(=O)N(Cc1ccccc1F)C1CCS(=O)(=O)C1` (centres undefined), the activation was inactive: -6.01%.
The value for `Cc1ccc(-c2nnc3ccccc3c2C(=O)Nc2ccccc2F)cc1` was inactive: -11.8%.
Consider `Cc1ccc(NC(=O)Cn2c(=O)n(CCC(=O)NCc3ccccc3Cl)c(=O)c3ccccc32)cc1`, for which the activation is inactive: -3.66%.
For the molecule `COc1ccc(Cl)cc1NC(=O)CSc1cn(CC(=O)N2CCCCCC2)c2ccccc12`, the activation was inactive: -14.9%.
Turning to `Cc1ccc(-n2c(=O)c3c(cnn3C)n(CC(=O)Nc3ccccc3C)c2=O)cc1`, the activation is inactive: 3.49%.
With `CCOc1ccc(-n2c(SCC(=O)NC3CCCCC3)nc3c([nH]c4ccccc43)c2=O)cc1`, the activation is inactive: -29.8%.
Consider `Cc1ccc(CNC(=O)CCCn2c(=O)[nH]c3ccc(Br)cc3c2=O)cc1`, for which the activation is inactive: 15.7%.
In the case of `COc1ccc2nc(C)cc(Nc3ccc(Cl)c(Cl)c3)c2c1`, the activation is inactive: 12.8%.
With `Cc1cccc(Cn2cc(S(=O)(=O)c3cccc(C)c3)c(=O)c3cc(F)c(N4CCOCC4)cc32)c1`, the activation was inactive: -6.97%.
The value for `CCCCn1c(=NC(=O)c2cc3ccccc3o2)c(C(=O)OCC)cc2c(=O)n3ccccc3nc21` was inactive: -3.09%.
Regarding `O=C(Oc1ccc(Cl)cc1)c1cc(-c2ccc3c(c2)OCCO3)on1`, the activation was inactive: 2.53%.
As for `CCN(CC)CCNC(=O)Cn1nc(C)c2c(C)n(-c3ccccc3)nc2c1=O`, the activation was inactive: 2.02%.
The figure for `COc1ccc(Cn2ccnc2SCC(=O)NCc2ccco2)cc1` is inactive: -5.63%; for `COc1ccc(-c2onc(C)c2C)cc1S(=O)(=O)NCC1CCN(Cc2cc(C)ccc2C)CC1` it is inactive: -11.8%; for `Cc1cccc(N2CCN(S(=O)(=O)c3ccc4c(c3)CC(=O)N4C)CC2)c1C` it is inactive: -7.6%.
With `COC(=O)c1ccccc1NC(=O)c1ccc2nc(CCc3ccccc3)oc2c1`, the activation was inactive: -18.3%.
The figure for `CCn1c(=O)c2cc(C(=O)NCCCN3CCC(C)CC3)sc2c2ccccc21` is inactive: 2.77%; for `COc1cccc(-c2noc(COc3ccccc3Cl)n2)c1` it is inactive: -11.1%.
Consider `Cc1ccc(Cl)cc1NC(=O)CSc1nc2ccccc2nc1Cc1ccccc1`, for which the activation is inactive: -9.31%.
As for `Cc1ccccc1CSc1nc2ccsc2c(=O)n1CCC(C)C`, the activation is inactive: -4.68%.
As for `Cc1ccc2cc(CN(C(=O)c3cccc(Cl)c3)c3ccccc3)c(=O)[nH]c2c1`, the activation is inactive: -12.3%.
Take `CCCSCCCNC(=O)c1ccc2c(c1)sc1nc(-c3ccc(OCC)cc3)cn12`: the activation is inactive: -7.42%.
Consider `CC1C(=O)N2CCCc3cc(S(=O)(=O)N4CCC(C(N)=O)CC4)cc1c32` (centres undefined), for which the activation was inactive: -4.69%.
Turning to `COc1ccccc1NC(=O)c1oc2ccccc2c1NC(=O)C1CCCCC1`, the activation was inactive: -5.25%.
Take `COc1cccc(CNC(=O)c2cnc(N3CCCCC3)c3ccccc23)c1`: the activation was inactive: 16.8%.
As to `O=C(NCc1ccccc1F)C1CCN(c2nn3cc(-c4ccc(F)cc4)nc3s2)CC1`, the activation was inactive: -4.43%.
The figure for `CN1c2ccc(Cl)cc2-c2nc(SCC(=O)NCc3ccccc3)ncc2S1(=O)=O` is inactive: -2.15%; for `Cc1ccc(OCc2ccc(-c3nc(C#N)c(NCc4ccccc4Cl)o3)o2)cc1` it is inactive: 17.4%.
In the case of `Cc1ccc(Cn2c(C(=O)O)c(CNC3CCCC3)c3ccc(C)cc32)cc1`, the activation is inactive: 17.8%.
As for `COc1ccc(C)cc1NC(=O)C(Cc1ccccc1)NS(=O)(=O)c1cccs1` (centres undefined), the activation was inactive: 2.9%.
For the molecule `O=C(NC1CC(=O)N(c2cccc(F)c2)C1)c1cc2ccccc2o1` (centres undefined), the activation is inactive: -12.9%.
Take `O=C(Nc1ccccc1C(F)(F)F)N1CCC(CN2CCc3ccccc3C2)CC1`: the activation is inactive: -12%.
As to `Cc1cc(C)cc(-n2c(SCC(N)=O)nc3c([nH]c4ccccc43)c2=O)c1`, the activation is inactive: -18.6%.
In the case of `CCOC(=O)c1ccc(CN(Cc2ccccc2C)S(=O)(=O)c2ccc(F)c(C)c2)cc1`, the activation was inactive: -31%.
On to `COCCNc1oc(/C=C/c2ccc(F)cc2)nc1C#N`, for which the activation is inactive: -28.3%.
`Cc1ccc2nc(-c3cccc(NC(=O)c4cccc5ccccc45)c3)oc2c1`: the activation was inactive: 3.6%.
The figure for `CCC(=O)N1CCc2cc(Br)cc(S(=O)(=O)CCC(=O)NCc3cccc(OC)c3)c21` is inactive: -11.5%; for `CCOC(=O)CC(=O)CSc1nc2ccsc2c(=O)n1Cc1ccccc1` it is inactive: -24.8%; for `CCC(=O)N1CCc2cc(Br)cc(S(=O)(=O)N3CCN(c4ccccc4OC)CC3)c21` it is inactive: 2.18%.
With `Cc1noc(-c2ccc(NC(C)c3ccccc3)c([N+](=O)[O-])c2)n1` (centres undefined), the activation was inactive: -9.96%.
For the molecule `Cc1ccc(CNC(=O)c2nc(SCc3ccccc3C)ncc2Cl)cc1`, the activation is inactive: 0.125%.
The figure for `CC1(c2ccccc2)CC(C)(C)N(C(=O)c2cccc(Cl)c2)c2ccccc21` (centres undefined) is inactive: -29.7%.
Turning to `COc1ccccc1NC(=O)c1ccc(CN2C(=O)C(C)=C(c3ccc(C)c(C)c3)S2(=O)=O)cc1`, the activation was inactive: -12.2%.
Consider `Cc1ccc(CNC(=O)c2ccc(CSCc3cccc(C)c3)o2)cc1`, for which the activation is inactive: 20.6%.
The figure for `Cc1ccc(CCNS(=O)(=O)c2c(C)nc3sc(C)c(C)n3c2=O)cc1` is inactive: 3.02%; for `COc1cccc(-c2nnc(-c3ccccc3NC(=O)c3ccc(F)cc3F)o2)c1` it is inactive: -20.1%.
Consider `Cc1cc(C)cc(-n2c(SCC(=O)N3CCOCC3)nc3c([nH]c4ccccc43)c2=O)c1`, for which the activation is inactive: -3.07%.
As for `O=C1C(=O)N(C2CCN(C(=O)c3ccccc3Cl)CC2)CCN1Cc1ccc(F)cc1`, the activation is inactive: -18.3%.
Take `Cc1nc2ccn(Cc3cccs3)c(=O)c2cc1C(=O)N1CCN(c2ccccc2F)CC1`: the activation is inactive: -19.9%.
With `COc1cccc(NC(=O)c2ccc3c(c2)CCN3S(C)(=O)=O)c1`, the activation was inactive: 4.99%.
Turning to `CC1CCN(S(=O)(=O)c2ccc3c(c2)N(CC(=O)NCCc2ccccc2)C(=O)CO3)CC1`, the activation is inactive: -32.1%.
The figure for `Fc1ccc(Nc2ncnc3onc(-c4ccc(Cl)cc4)c23)cc1Cl` is inactive: 49.8%.
On to `CCOc1ccc(CCNC(=O)c2ccc3c(c2)N(Cc2ccc(C)cc2)CCS3)cc1`, for which the activation is inactive: -20.6%.
In the case of `O=C(C1CCCN(S(=O)(=O)c2ccc(Br)s2)C1)N1CCN(c2ccccc2F)CC1` (centres undefined), the activation was inactive: -20.4%.
The figure for `CCOC(=O)c1cn(CC(=O)Nc2ccc(OC)cc2OC)nn1` is inactive: -11.4%; for `CCN(C(=O)c1sc2nc3n(c(=O)c2c1C)CCCCC3)c1ccc(OC)cc1` it is inactive: -4.41%; for `CCN(CC)CCCNc1sc(S(=O)(=O)c2ccccc2)nc1S(=O)(=O)c1ccc(Cl)cc1` it is inactive: -22.1%.
As to `CCOC(=O)c1c(C)[nH]c(CCC(=O)NC(C)c2ccccc2)c1C` (centres undefined), the activation was inactive: -8.82%.
Regarding `COc1ccc(C)cc1NC(=O)NC(C)c1c(-n2cccc2)sc(C)c1C` (centres undefined), the activation was inactive: -20.7%.
`Cc1ccc(Cl)cc1NC(=O)Cn1c(=O)n(CCC(=O)NCc2ccc3c(c2)OCO3)c(=O)c2sccc21`: the activation was inactive: -16.5%.
On to `COC(=O)C(NC(=O)CCc1c(C)nc2c(-c3ccccc3)c(C)nn2c1C)C(C)C` (centres undefined), for which the activation was inactive: 12.3%.
As to `CCCC(=O)Nc1nnc(S(=O)(=O)N2CCCCCC2)s1`, the activation is inactive: -57.1%.
The figure for `COc1ccc(C2C(C(=O)Nc3ccccc3)=C(C)Nc3nc(SCC(=O)c4ccc(C)cc4)nn32)cc1` (centres undefined) is inactive: -6.86%.
Turning to `CC1=C(c2ccc(F)cc2)S(=O)(=O)N=C1N1CCC(C(=O)NCCc2ccccc2C)CC1`, the activation is inactive: -22.9%.
`CC(C)Cc1ccc(S(=O)(=O)N2CCN(Cc3noc(CCC(=O)N4CCCCC4)n3)CC2)cc1`: the activation is inactive: -19.3%.
As for `Cc1cc(C)nc(-n2nc(C)c3c2NC(=O)CC3c2cccc(O)c2)n1` (centres undefined), the activation is inactive: -5.32%.
The value for `CCOc1cc2c(cc1OCC)C(CC(=O)O)N(C(=O)Nc1ccccc1C(F)(F)F)CC2` (centres undefined) was inactive: -2.62%.
The value for `Cc1cc2nn(-c3ccc(F)cc3)nc2cc1NC(=O)c1cccc2c(Cl)cccc12` was inactive: 6.22%; that for `CCOC(=O)c1ccc2c(c1)N(Cc1ccc(F)cc1Cl)C(=O)c1ccccc1S2(=O)=O` was inactive: -19.1%; that for `COc1ccc(-n2cc(-c3ccccc3)c3c(Nc4ccc(OC)c(OC)c4)ncnc32)cc1` was inactive: -9.83%.
For `CCn1c(C)c(C)c2cc(C(=O)NCc3ccc(F)cc3)ccc21`, the activation is inactive: -14.7%.
As to `COc1cc(OC)c(NC(=O)Nc2cccc(OCc3cc(=O)n4ccccc4n3)c2)cc1Cl`, the activation is inactive: -9.2%.
